Test results published in PubChem BioAssay AID686970 (National Center for Advancing Translational Sciences (NCATS), 2013).
The campaign covered roughly 360,000 compounds. About 6,000 (1.7%) were called active. Inconclusive means that the source gave no clear call. Such entries were picked first, then a sample of the others. Calls follow the shape of the dose curve; as a rule, active = well fitted cell-killing curve with a large enough effect; inconclusive = small, poorly fitted or top-dose-only effect, or effect the other way; inactive = flat fitted curve, though single readings scatter. Potencies of inconclusive entries are left out as doubtful fits.

Experiment: qHTS for induction of synthetic lethality in tumor cells producing 2HG: qHTS for the HT-1080-NT fibrosarcoma cell line;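 also: NT is the 2HG producing partner of a matched IDH1 knockdown line; nearly all actives have a fitted effect of over 55% in size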;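 as to activity, negative = less viability: 0% = DMSO-treated cells and -100% = media-only wells without cells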
Details: HT-1080-NT fibrosarcoma viability, CellTiter-Glo ATP luminescence, 48 h; activity, negative = less viability: at 46.1 µM (top of the series) unless noted
In short: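 Compounds were tested in concentration-response format on HT-1080-NT cells for 48 hours at 37 degrees C. Cell viability came from CellTiter-Glo luminescence; curves were classified by r2, response magnitude and activity.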
Potency is read from the fitted curve at half-maximal effect; tags tell the direction and shape of the fitted curve.

SMILES | Potency | activity, negative = less viability
COc1ccccc1Oc1coc2cc(OCC(N)=O)ccc2c1=O | inactive | 
Cc1c(C(=O)N(CCc2ccccc2)Cc2ccccc2)cccc1[N+](=O)[O-] | inconclusive [cytotoxic, single point] | 
COc1cccc(CN(C)C(=O)c2cc(-c3cccs3)nc3ccccc23)c1 | inconclusive [cytotoxic, single point] | 
Cc1ccc(C(=O)/C=C/Nc2cccc([N+](=O)[O-])c2)o1 | inactive | 
C=CCNC(=O)c1ccc(-c2nc3ccccc3nc2-c2ccccc2)cc1 | inactive | 
CCc1ccc(OCCOCC(O)CN2CCN(Cc3ccc(Cl)cc3)CC2)cc1 (centres undefined) | inconclusive [cytotoxic, partial curve] | 
N#Cc1nc(-c2ccco2)oc1N1CCN(C(c2ccccc2)c2ccccc2)CC1 | inconclusive [cytotoxic, single point] | 
CC(C)Cn1c(-c2nn(C)cc2Cl)n[nH]c1=S |  | inconclusive: 36.5%
NC(Cc1ccc(Cl)cc1)c1csc(Nc2cc(Oc3ccccc3)ncn2)n1 (centres undefined) | active: 18.4 µM | 
OC(c1ccccc1)c1nc(-c2cc(F)cc(F)c2)cs1 (centres undefined) | inconclusive [cytotoxic, single point] | 
Cc1c(C(=O)NC2CCN(Cc3ccccc3)C2)oc2ccc(Br)cc12 (centres undefined) | inconclusive [cytotoxic, single point] | 
Cc1ccc(-n2nnc(-c3nccn3C)n2)cc1 | inconclusive [cytotoxic, single point] | 
N#C/C(=C\c1c[nH]c2ccccc12)C(=O)Nc1ncc(Cc2ccc(Cl)cc2Cl)s1 | inconclusive [cytotoxic, single point] | 
CNc1nc(-c2cccc(C(=O)N(C)C)c2)cn2ccnc12 | inconclusive [rising, single point] | 
COc1ccc(N2CC(C(=O)OCC(=O)Nc3cccc(C)c3C)CC2=O)cc1 (centres undefined) | inactive | 
COc1ccc(NS(=O)(=O)c2ccc(NC(=S)NC(=O)/C=C/c3ccc(C)cc3)cc2)nn1 | inconclusive [cytotoxic, single point] | 
CCOC(=O)C1=C(CC)Nc2ccccc2N=C1NC(=O)Nc1ccc(Cl)c(Cl)c1 | inconclusive [cytotoxic, single point] | 
Cc1ccc(C(=O)CSC2=C(C#N)C(c3ccco3)CC(=O)N2)c(C)c1 (centres undefined) | inconclusive [cytotoxic, single point] | 
COC(=O)c1ccccc1NC(=O)c1cccc(NC(=O)c2ccc(Br)o2)c1C | active: 12.6 µM | 
